Experimental data reported in paper PMC12666128, “Engineering ω-transaminase for efficient dihydroxyacetone transamination in serinol biosynthesis starting from methanol” (Synthetic and Systems Biotechnology, 2025).

Molecular target: T1, Vf-ωTA (Vibrio fluvialis, UniProt F2XBU9)
T1 construct: recombinant ω-transaminase
T1 sequence (F2XBU9 1-453): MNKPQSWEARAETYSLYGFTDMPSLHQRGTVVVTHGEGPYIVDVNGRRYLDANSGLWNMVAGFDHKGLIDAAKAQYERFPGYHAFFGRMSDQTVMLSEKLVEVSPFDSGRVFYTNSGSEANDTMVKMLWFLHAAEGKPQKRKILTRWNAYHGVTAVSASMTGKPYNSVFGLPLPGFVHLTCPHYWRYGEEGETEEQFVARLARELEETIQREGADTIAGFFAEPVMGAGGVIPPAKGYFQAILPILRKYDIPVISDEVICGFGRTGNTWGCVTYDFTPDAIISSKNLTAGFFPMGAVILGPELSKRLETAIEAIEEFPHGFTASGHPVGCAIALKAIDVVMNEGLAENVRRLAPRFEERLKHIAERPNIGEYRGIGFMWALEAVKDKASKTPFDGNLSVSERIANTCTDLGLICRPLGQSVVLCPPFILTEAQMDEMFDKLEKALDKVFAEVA
Test: HPLC of serinol formed
Type: biochemical
Settings: 30 mM DHA, 150 mM L-Ala, 0.5 mM PLP, pH 7.5, 30 °C, 12 h

Question: How did the “HPLC of serinol formed” value turn out when `O=C(CO)CO` [DHA] was run?
Answer: The value was “all ω-TAs gave substantially higher serinol conversion with L-Ala than with IPA or MBA”.

Question: How did the “HPLC of serinol formed” value (amino donor) turn out when `C[C@H](N)C(=O)O` [L-Ala] was run?
Answer: The value was “all ω-TAs gave substantially higher serinol conversion with L-Ala than with IPA or MBA”.
